Results on 89 molecules are retold here after publication PMC4336329 (PLoS ONE, 2015).

The whole screen tested about 310,000 compounds, of which about 14,000 (4.5%) showed an effect of 50% or more. Effects have a minus sign here. Some of the results follow.
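Further: peak tail current of the secondary pulse compared with the same well before compound.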

In the assay the target is human ether-à-go-go-related gene (hERG) potassium channel (human, UniProt Q12809). The experiment in a line: primary screen, population patch clamp on CHO cells stably expressing hERG.
Chain of human ether-à-go-go-related gene (hERG) potassium channel (Q12809 whole entry, looked up): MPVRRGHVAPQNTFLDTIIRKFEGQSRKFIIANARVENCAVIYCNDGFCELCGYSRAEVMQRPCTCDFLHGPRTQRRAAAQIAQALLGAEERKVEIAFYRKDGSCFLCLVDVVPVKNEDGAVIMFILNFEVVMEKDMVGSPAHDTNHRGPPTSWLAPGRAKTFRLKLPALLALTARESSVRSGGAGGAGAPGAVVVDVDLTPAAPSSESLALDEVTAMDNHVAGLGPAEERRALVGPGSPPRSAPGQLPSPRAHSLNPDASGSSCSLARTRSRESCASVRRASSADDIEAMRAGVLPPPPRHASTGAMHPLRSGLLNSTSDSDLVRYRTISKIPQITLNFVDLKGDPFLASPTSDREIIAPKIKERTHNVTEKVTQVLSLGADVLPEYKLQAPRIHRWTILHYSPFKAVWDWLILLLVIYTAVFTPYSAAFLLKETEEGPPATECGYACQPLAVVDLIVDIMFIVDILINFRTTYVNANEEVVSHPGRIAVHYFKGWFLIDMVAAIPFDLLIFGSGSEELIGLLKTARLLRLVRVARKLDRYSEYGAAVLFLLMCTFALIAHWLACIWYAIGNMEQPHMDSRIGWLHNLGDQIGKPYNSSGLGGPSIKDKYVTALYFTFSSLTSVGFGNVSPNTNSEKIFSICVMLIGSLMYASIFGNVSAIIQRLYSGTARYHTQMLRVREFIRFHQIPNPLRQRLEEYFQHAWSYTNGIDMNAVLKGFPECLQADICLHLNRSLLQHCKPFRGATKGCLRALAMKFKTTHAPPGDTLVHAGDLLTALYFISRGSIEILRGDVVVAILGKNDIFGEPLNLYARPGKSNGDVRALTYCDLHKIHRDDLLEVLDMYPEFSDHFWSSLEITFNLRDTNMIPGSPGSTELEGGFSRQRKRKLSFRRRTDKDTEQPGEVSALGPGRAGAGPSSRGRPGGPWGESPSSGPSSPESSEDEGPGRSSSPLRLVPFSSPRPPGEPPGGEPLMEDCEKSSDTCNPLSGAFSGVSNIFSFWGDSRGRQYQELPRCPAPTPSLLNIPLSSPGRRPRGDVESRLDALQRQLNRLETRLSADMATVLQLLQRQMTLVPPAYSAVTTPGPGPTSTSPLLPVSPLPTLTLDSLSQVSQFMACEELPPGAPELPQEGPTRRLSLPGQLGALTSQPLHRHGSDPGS
On to `CCOC(=O)c1c(C)[nH]c(C)c1C(=O)COc1ncnc2cc([N+](=O)[O-])ccc12`, for which the “hERG current change (%, negative = inhibition) at 10uM” value was -21.2%.
In the case of `CCCCCCCCSc1nnc(CSc2nc3nc(C)cc(C)n3n2)o1` it was -16.7%; in that of `COc1ccc(-c2c(-c3ccc(O)cc3O)n[nH]c2C)cc1OC`, -20.9%.
In the case of `O=C(CCc1nnc(CCCCc2ccccc2)o1)NC1CCCC1` it was -1.55%; in that of `COc1ccc(CCNC(=O)Nc2ccc3c(c2)OCO3)cc1OC`, 18.8%.
As for `Cc1nc(Cc2nnc(SCC(=O)N3CCN(c4ccc(F)cc4)CC3)o2)cs1`, the “hERG current change (%, negative = inhibition) at 10uM” value is -50.9%.
Next, `CC1(C)CC(=O)c2c(O)cc(OCC(=O)Nc3ccc(S(N)(=O)=O)cc3)cc2O1`: -4.04%; `CC(C)NC(=O)c1onc(CSc2ccc(F)c(F)c2)c1C(=O)O`: 5.75%.
Take `COc1ccc2c(c1OC)C(=O)OC2`: the “hERG current change (%, negative = inhibition) at 10uM” value is 15.1%.
Next, `COc1ccc(CCNC(=O)c2nnn(CC(=O)Nc3c(C)cc(C)cc3C)c2N)cc1OC`: 6.67%.
Turning to `CCCC(C)NC(=O)c1nc(-c2ccccc2)n(-c2ccccc2)n1` (centres unmarked), the “hERG current change (%, negative = inhibition) at 10uM” value is given as -55.7%.
As to `Cc1cccc(Cn2c(N3CCN(C)CC3)nc3c2c(=O)[nH]c(=O)n3C)c1`, the “hERG current change (%, negative = inhibition) at 10uM” value is on record as -50.7%.
Regarding `NNC(=O)c1cc(S(=O)(=O)N2CCOCC2)c[nH]1`, the “hERG current change (%, negative = inhibition) at 10uM” value is listed as 2.49%.
Next, `Cc1ccc(CNCc2ccccc2Cl)cc1.Cl`: -7.02%; `CN1CCN(C(CNS(=O)(=O)c2cccs2)c2cccnc2)CC1` (centres unmarked): -21.4%.
Consider `COc1ccc(C)cc1NCC(=O)Nc1ccc(C(C)(C)C)cc1`, for which the “hERG current change (%, negative = inhibition) at 10uM” value stood at 9.01%.
Next, `COc1ccc(C)cc1S(=O)(=O)N1CCCC(C(=O)NCc2ccccn2)C1` (centres unmarked): -2.73%.
As to `CCc1ccc(NC(=O)CSc2nc3ccccc3c(=O)n2CCCN2CCC(C)CC2)cc1`, the “hERG current change (%, negative = inhibition) at 10uM” value is -67.2%.
Next, `Cc1ccc(SCc2nc(-c3ccccc3)no2)cc1`: 2.3%; `Cc1ccc(OCCC(=O)Nc2ccc(F)c(F)c2)cc1`: -5.62%; `NS(=O)(=O)c1ccc(CNC(=O)Cc2ccccc2[N+](=O)[O-])cc1`: 17.8%.
Next, `COc1ccc(CN(C)C(=O)c2cnc(C)cn2)c(OC)c1OC`: 24.5%; `O=C1/C(=C/c2ccncc2)SC(=S)N1C1CCS(=O)(=O)C1` (centres unmarked): 4.52%.
Next, `CCN(CC)CCOC(=O)c1ccc(Cl)cc1.Cl`: -42.7%; `Cc1ccc2c(c1)CCCN2C(=O)c1ccoc1C`: -7.85%.
As to `CCOC(=O)CCc1c(C)c(C#N)c2nc3ccccc3n2c1-n1ccnc1C`, the “hERG current change (%, negative = inhibition) at 10uM” value is -45.2%.
`COC(CNC(=O)c1ccc2c(c1)nc(C)n2-c1cccc(C)c1)OC`: the “hERG current change (%, negative = inhibition) at 10uM” value came out at 0.933%.
Consider `Cc1ccccc1C(=O)Nc1cccc(-c2ccc3nncn3n2)c1`, for which the “hERG current change (%, negative = inhibition) at 10uM” value is -2.94%.
In the case of `Cc1nn(-c2ccccc2)c2c1C(c1ccc3c(c1)OCO3)SCC(=O)N2` (centres unmarked) it was -9.35%; in that of `O=C(Cc1ccccc1)Nc1ccccc1N1CCCC1`, 9.76%.
With `CCOc1ccc(C(=O)COC(=O)c2cccc(-n3cnnn3)c2)cc1`, the “hERG current change (%, negative = inhibition) at 10uM” value was -23.8%.
As to `Nc1ccc(C(=O)NNC(=O)C2COc3ccccc3O2)cc1[N+](=O)[O-]` (centres unmarked), the “hERG current change (%, negative = inhibition) at 10uM” value is given as -43.1%.
Regarding `O=C1COc2ccc(C(=O)COC(=O)c3cc(S(=O)(=O)NCc4ccccc4)ccc3O)cc2N1`, the “hERG current change (%, negative = inhibition) at 10uM” value is reported as -4.76%.
Turning to `C=CCN1CC[C@]23c4c5ccc(O)c4O[C@H]2/C(=N/NC(=O)c2ccccc2)CC[C@@]3(O)[C@H]1C5`, the “hERG current change (%, negative = inhibition) at 10uM” value is listed as -69.1%.
In the case of `CC(C)=CC(=O)OCC(=O)Nc1ccc(Cl)cc1` it was -22.9%.
Next, `Cc1ccc2ccccc2c1NC(=O)CNC1CCCCC1.[O-][Cl+3]([O-])([O-])O`: 0.514%; `CCCn1c2c(c(O)c(C(=O)Nc3nccs3)c1=O)CCCC2`: -3.1%.
As to `Cc1ccc2c(c1)N(CC(=O)N1CCCC1)C(=O)c1cccnc1O2`, the “hERG current change (%, negative = inhibition) at 10uM” value is 10.8%.
In the case of `COc1ccc([N+](=O)[O-])cc1NC(=O)c1cc(C)c(C)o1` it was 7.62%.
Regarding `COc1ccc(CC(=O)N2CCN(c3ccccc3)CC2)cc1OC`, the “hERG current change (%, negative = inhibition) at 10uM” value was determined as 18.4%.
Next, `CC(C)c1c(O)nc(SCCN(C)C)[nH]c1=O.Cl`: -1.68%; `O=C(c1ccc(Cl)nc1)N1CCN(S(=O)(=O)c2ccccc2)CC1`: -3.95%.
As for `CN(Cc1cccc(F)c1)C(=O)CN1CCN(S(=O)(=O)c2ccc3c(c2)OCCCO3)CC1`, the “hERG current change (%, negative = inhibition) at 10uM” value came out at 1.02%.
In the case of `Cn1c(=O)c2sc3c(c2n(CC(=O)Nc2ccccc2)c1=O)COC(C)(C)C3`, the “hERG current change (%, negative = inhibition) at 10uM” value is recorded as 16.9%.
Next, `COc1ccc(-n2c(SCC(=O)N/N=C/c3ccccc3OCC(=O)O)nc3ccccc3c2=O)cc1`: 5.92%; `CC1CCCN(CC(=O)Nc2cccc([N+](=O)[O-])c2)C1` (centres unmarked): -16.7%.
On to `CN1CC(=O)N(CC(=O)NCc2ccc3c(c2)OCO3)C1=O`, for which the “hERG current change (%, negative = inhibition) at 10uM” value is -5.9%.
In the case of `COc1cc(C(=O)NCC(=O)N/N=C\C(C)=C/c2ccccc2)cc(OC)c1OC` it was 2.8%; in that of `CCOc1ccc(N(CC(=O)Nc2cccnc2)S(C)(=O)=O)cc1`, -20.7%; in that of `Cc1sc2nc(N)sc2c1C`, -1.94%.
In the case of `O=c1c2cc(N3CCOCC3)ccc2[nH]c(=S)n1CC1CCCO1` (centres unmarked) it was -17.4%; in that of `COc1ccccc1CNC(=O)COC(=O)C1=COCCO1`, 8.86%; in that of `COC(=O)CCn1[nH]c(=O)c2ccccc2c1=O`, 7.71%.
In the case of `COc1ccc(C(=O)NC2CCCc3ccccc32)cc1` (centres unmarked), the “hERG current change (%, negative = inhibition) at 10uM” value is on record as -7.74%.
In the case of `Cc1ccccc1NC(=O)/C(C#N)=C\c1cn(CC(=O)O)c2ccccc12`, the “hERG current change (%, negative = inhibition) at 10uM” value is given as 15%.
Next, `O=C(CN1CCC(Cc2ccccc2)CC1)NC(=O)NCc1ccccc1`: 2.56%; `O=C(O)CCCCCN1C(=O)/C(=C\c2cn(-c3ccccc3)nc2-c2cccs2)SC1=S`: 9.26%.
In the case of `CCCOC(=O)c1cccc(NC(=O)C(C)(C)C)c1` it was 1.43%; in that of `Cc1ccc(-n2c(Cl)c(Cl)[nH]c(=O)c2=O)cc1`, -14.1%.
In the case of `CN1CCN(C(=O)N2c3ccccc3C=Cc3ccccc32)CC1` it was -5.03%; in that of `CCn1c(-c2ccccc2)c(C(=O)CCl)c2ccccc21`, 19.7%.
For the molecule `CCN1CCN(CCCNC(=O)Cn2nc(C)n3nc(-c4ccccc4)cc3c2=O)CC1`, the “hERG current change (%, negative = inhibition) at 10uM” value is -11.1%.
Consider `C[C@@H](C(=O)NCc1ccccc1)[C@@H]1C[C@@]1(C)[C@@H](NC(=O)OCc1ccccc1)c1ccccc1`, for which the “hERG current change (%, negative = inhibition) at 10uM” value is -23.7%.
Next, `COc1ccc(NC(=O)c2cc3cc(OC)ccc3oc2=N)cc1`: 13.9%; `CCCCNC(=O)COC(=O)c1ccc(F)cc1Cl`: -10.8%.
Take `CCCOCc1ccc(O)c2ncccc12`: the “hERG current change (%, negative = inhibition) at 10uM” value is 0.502%.
Consider `O=C(CSc1nnc2ccc(-c3ccccn3)nn12)Nc1ccc(F)cc1F`, for which the “hERG current change (%, negative = inhibition) at 10uM” value is given as -18%.
In the case of `CCC(=O)N1CCc2cc(S(=O)(=O)CCC(=O)N3CCN(c4ccccc4F)CC3)ccc21` it was 3.11%; in that of `COn1c(-c2ccccc2)nc2ncccc21`, 19.1%.
In the case of `Cc1onc(-c2c(F)cccc2Cl)c1C(=O)OCC(=O)NC(=O)NCC(C)C` it was 24.2%; in that of `Cc1cccc(OCCNC(=O)c2cccc(Oc3ccc(C(F)(F)F)cc3[N+](=O)[O-])c2)c1`, 4.98%; in that of `CC(=O)Nc1ccc(C(=O)NNC(=O)c2cccc(C)c2)cc1`, -1.91%.
On to `CC(=O)c1ccc(NC(=O)CSc2nnc(NC(=O)C3CC3)s2)cc1`, for which the “hERG current change (%, negative = inhibition) at 10uM” value is listed as -0.703%.
Next, `O=C(Nc1ccc(N2CCOCC2)nc1)c1cccs1`: 3.15%; `CSc1nsc(SC)c1C(=O)N1CCN(S(=O)(=O)c2ccc(C)cc2)C1C` (centres unmarked): -29.9%.
Next, `CCOc1c(C)cc(-c2[nH+]cccc2O)cc1C.[Cl-]`: -7.49%; `Cc1ccc(NC(=O)Nn2cnnc2)cc1Cl`: 6.96%.
For the molecule `O=C(CCSc1nc(-c2ccco2)cc(C(F)(F)F)n1)NCCc1ccccc1`, the “hERG current change (%, negative = inhibition) at 10uM” value is given as 1.92%.
In the case of `Cc1ccc(Cn2cc(-c3ccccc3)nn2)cc1` it was 17.2%; in that of `OC(CN1CCN(C(c2ccccc2)c2ccccc2)CC1)c1ccc(Br)cc1` (centres unmarked), -28.8%; in that of `Cc1cc(C(=O)NNC(=S)NC(=O)/C=C/c2ccccc2Cl)n[nH]1`, -8.91%.
In the case of `Nn1c(Nc2ccccc2)nc2ccccc2c1=O` it was 14.2%; in that of `CS(=O)(=O)N1CCN(c2ccccc2NC(=O)c2ccc3ccccc3c2)CC1`, -8.76%; in that of `COCCn1c(C)cc(O)c(C(=O)Nc2cccc(Cl)c2)c1=O`, 19.6%.
For the molecule `CCOC(=O)C1CCCN(C2CC(=O)N(c3ccc(N4C(=O)CC(N5CCCC(C(=O)OCC)C5)C4=O)cc3)C2=O)C1` (centres unmarked), the “hERG current change (%, negative = inhibition) at 10uM” value is -4.62%.
Turning to `Cc1cc(NC(=O)c2sc(Nc3ccc(F)cc3)nc2N)no1`, the “hERG current change (%, negative = inhibition) at 10uM” value is reported as 20%.
On to `Cn1c(SCC(=O)Nc2ccccc2-c2ccccc2)nnc1-c1ccco1`, for which the “hERG current change (%, negative = inhibition) at 10uM” value is listed as -46.1%.
Next, `CSc1ccc(S(=O)(=O)N2CCC(C(=O)N3CCc4ccccc4C3)CC2)cc1`: -20%; `CC(NC(=O)c1ccc(Br)cc1)C(=O)NC1=NCCS1` (centres unmarked): 15.9%.
